The text below walks through data of US20090087894A1, “Method for improving enzymatic activity of glycosyltransferases” (Japan Tobacco Inc., priority 2004, published 2009).

The target in assay [1] is T1, β-galactoside-α2,6-sialyltransferase derived from P. damselae strain JT0160 (Photobacterium damselae, UniProt O66375).
T1 sequence (O66375 16-675): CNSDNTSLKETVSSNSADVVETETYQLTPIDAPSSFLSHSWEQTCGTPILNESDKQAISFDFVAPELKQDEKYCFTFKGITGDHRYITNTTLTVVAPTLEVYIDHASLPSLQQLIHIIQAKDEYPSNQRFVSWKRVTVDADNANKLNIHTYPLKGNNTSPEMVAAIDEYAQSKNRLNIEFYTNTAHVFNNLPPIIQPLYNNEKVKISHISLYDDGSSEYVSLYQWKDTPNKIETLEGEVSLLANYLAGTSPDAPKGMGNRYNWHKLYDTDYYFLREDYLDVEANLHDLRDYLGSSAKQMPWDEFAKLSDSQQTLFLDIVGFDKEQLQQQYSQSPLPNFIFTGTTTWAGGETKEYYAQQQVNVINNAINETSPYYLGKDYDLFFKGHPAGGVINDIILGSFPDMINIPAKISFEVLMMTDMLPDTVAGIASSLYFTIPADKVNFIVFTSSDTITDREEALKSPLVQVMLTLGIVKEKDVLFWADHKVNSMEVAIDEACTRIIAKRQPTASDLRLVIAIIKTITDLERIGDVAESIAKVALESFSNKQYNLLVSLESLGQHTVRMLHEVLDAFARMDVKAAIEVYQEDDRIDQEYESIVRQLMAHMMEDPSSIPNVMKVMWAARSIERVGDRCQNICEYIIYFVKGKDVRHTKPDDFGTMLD
The protocol:
β-Galactoside-α2,6-sialyltransferase was purified from P. damselae strain JT0160, a marine microorganism, according to the procedure previously reported (Japanese Patent No. 3062409). The purity of the purified enzyme was confirmed by SDS-PAGE, whereby the final purified enzyme was confirmed to be an electrophoretically single protein. This purified enzyme was used in the following experiment.
The enzymatic reaction was accomplished in 20 μl reaction solution containing CMP-^14C-NeuAc as a glycosyl donor substrate (50.066 nmol, 25000 cpm), lactose as a glycosyl acceptor substrate (1 mmol), sialyltransferase (0.5 to 1.5 mU) and NaCl at a concentration varying from 0 to 2.5 M (30° C., 1 minute). After completion of the enzyme reaction, the radioactivity of NeuAc which was transferred to lactose under the respective conditions was measured to calculate the enzymatic activity, thereby studying the effect of NaCl on the enzymatic activity in each test range.
More specifically, after completion of the reaction, each reaction solution was supplemented with 1.98 ml of 5 mM phosphate buffer (pH 6.8) and applied to a AG1−×2Resin (PO4^3− form, 0.2×2 cm) column. This column was prepared as follows: AG1−×2Resin (OH^− form) (BIO-RAD) was suspended in 1 M phosphate buffer (pH 6.8), and after 30 minutes, the resin was washed with distilled water and then suspended in distilled water. The eluate (0 to 2 ml) from this column was measured for its radioactivity. The eluate from this column contains unreacted lactose and ^14C-NeuAc (N-acetylneuraminic acid)-bound sialyllactose which was generated by the reaction, but unreacted CMP-^14C-NeuAc is still retained on the column. Thus, the radioactivity of ^14C from sialyllactose generated as a result of the enzymatic reaction arises exclusively from the reaction product, so that the radioactivity of this fraction can be used to calculate the enzymatic activity.
The enzyme reaction was accomplished in 20 μl reaction solution containing CMP-^14C-NeuAc as a glycosyl donor substrate (50.066 nmol, 25000 cpm), lactose as a glycosyl acceptor substrate (1 mmol), sialyltransferase (0.5 to 1.5 mU) and KCl at a concentration varying from 0 to 1 M (30° C., 1 minute). After completion of the enzyme reaction, the radioactivity of NeuAc which was transferred to lactose under the respective conditions was measured to calculate the enzyme activity, thereby studying the effect of KCl on the enzyme activity in each test range. More specifically, after completion of the reaction, each reaction solution was supplemented with 1.98 ml of 5 mM phosphate buffer (pH 6.8) and applied to a AG1−×2Resin (PO4^3− form, 0.2×2 cm) column. This column was prepared as follows: AG1−×2Resin (OH^− form) (BIO-RAD) was suspended in 1 M phosphate buffer (pH 6.8), and after 30 minutes, the resin was washed with distilled water and then suspended in distilled water. The eluate (0 to 2 ml) from this column was measured for its radioactivity.
The enzyme reaction was accomplished in 20 μl reaction solution containing CMP-^14C-NeuAc as a glycosyl donor substrate (50.066 nmol, 25000 cpm), lactose as a glycosyl acceptor substrate (1 mmol), sialyltransferase (0.5 to 1.5 mU) and any one of MgCl2, MgSO4, CoCl2, CaCl2, MnCl2 or FeSO4 at a final concentration of 0 mM, 10 mM or 20 mM. (30° C., 1 minute). After completion of the enzyme reaction, the radioactivity of NeuAc which was transferred to lactose under the respective conditions was measured to calculate the enzyme activity, thereby studying the effect of various salts on the enzyme activity in each test range. More specifically, after completion of the reaction, each reaction solution was supplemented with 1.98 ml of 5 mM phosphate buffer (pH 6.8) and applied to a AG1−×2Resin (PO4^3− form, 0.2×2 cm) column. […]

For assay [2], the target named is T2, Rat liver-derived β-galactoside-α2,6-sialyltransferase (Rattus norvegicus, UniProt P13721).
T2 construct: purchased Wako Pure Chemical Industries, Ltd., Japan; host or cells: rat liver-derived
T2 sequence (P13721 1-403): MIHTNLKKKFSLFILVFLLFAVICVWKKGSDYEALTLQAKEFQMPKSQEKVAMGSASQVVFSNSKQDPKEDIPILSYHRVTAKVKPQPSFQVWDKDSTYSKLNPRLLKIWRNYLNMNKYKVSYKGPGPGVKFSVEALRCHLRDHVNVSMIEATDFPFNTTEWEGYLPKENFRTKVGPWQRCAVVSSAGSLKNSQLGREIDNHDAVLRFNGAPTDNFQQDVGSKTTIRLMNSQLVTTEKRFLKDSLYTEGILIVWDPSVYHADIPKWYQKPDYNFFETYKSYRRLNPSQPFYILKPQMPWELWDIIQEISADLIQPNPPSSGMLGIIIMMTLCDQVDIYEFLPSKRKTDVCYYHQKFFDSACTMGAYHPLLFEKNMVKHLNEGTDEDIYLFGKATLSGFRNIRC
Put plainly: Effect of NaCl on enzyme activity of rat liver-derived sialyltransferase, 14C-NeuAc transfer to asialofetuin. Format: biochemical. The following applies: NaCl 0 to 1.4 M; 37° C., 1 hour; relative to NaCl-free reaction solution = 1; FIG. 3. On the procedure: The enzyme reaction was accomplished in the presence of CMP-^14C-NeuAc as a glycosyl donor substrate (50.066 nmol, 25000 cpm), asialofetuin as a glycosyl acceptor substrate (10 mg), sialyltransferase (1 to 5 mU) and NaCl at a concentration varying from 0 to 1.4 M (37° C., 1 hour). After completion of the enzymatic reaction, each reaction solution was applied to a Sephadex G-50 super fine (Amersham) column (0.8×20 cm) and eluted using a 0.1 M NaCl solution as a mobile phase to collect a high-molecular fraction containing a reaction product eluted at 2 to 4 ml (i.e., an enzymatic reaction product in which ^14C-labeled NeuAc was transferred to asialofetuin). It should be noted that a control experiment was performed for each reaction to confirm that unreacted CMP-^14C-NeuAc was not eluted in this fraction. The radioactivity of NeuAc transferred to asialofetuin was measured from the fraction to calculate the enzyme activity.

The mark [3] stands for this setting: salt added at 10 mM, absence of salt = 1.
Where [4] appears, read: salt added at 20 mM, absence of salt = 1.

“And” between values parts separate entries of the source, which are not always exact repeats. Identical values can stand only once. Like-named read-outs stand apart in the source and are kept apart here.

As to `[Ca+2].[Cl-].[Cl-]` [CaCl2], the values for the relative activity in assay [1] (setting [3]) and in assay [1] (setting [4]) were 0.86 and 0.82, respectively.
Take `[Cl-].[Cl-].[Co+2]` [CoCl2]: the relative activity in assay [1] is 0.69 and 0.41.
With `O=S(=O)([O-])[O-].[Fe+2]` [FeSO4], the relative activity is on record as 0.85 in assay [1] (setting [3]) and 0.93 in assay [1] (setting [4]).
Take `[Cl-].[K+]` [KCl]: the “improvement of sialyltransferase activity by KCl” value in assay [1] (KCl 0 to 1 M, 30° C., 1 minute, FIG. 2) was “not observed to improve the activity”.
As for `[Cl-].[Cl-].[Mg+2]` [MgCl2], the relative activity in assay [1] (setting [3]) is given as 0.97; in assay [1] (setting [4]) it was 0.84.
On to `O=S(=O)([O-])[O-].[Mg+2]` [MgSO4], for which the relative activity is on record as 0.87 in assay [1] (setting [3]) and 0.89 in assay [1] (setting [4]).
`[Cl][Mn][Cl]` [MnCl2]: the relative activity in assay [1] (setting [3]) was determined as 0.78; in assay [1] (setting [4]) it was 0.92.
As to `[Cl-].[Na+]` [NaCl], the “increase in enzyme activity on addition of NaCl” value in assay [2] is reported as “no increase”.
